# Source: PubChem BioAssay AID1468 (National Center for Advancing Translational Sciences (NCATS), 2008)
# Among all 280,000 compounds or so, about 1,100 (0.39%) were called active. The shares of active, inactive and inconclusive entries below differ from those in the screen. Calls come from the whole dose curve; as a rule, active = well fitted inhibition curve with a large enough effect; inconclusive = small, poorly fitted or top-dose-only effect, or effect the other way; inactive = flat fitted curve, though single readings scatter. No potency is given beside an inconclusive call; the fits are too rough.
# Molecular target: Microtubule-associated protein tau (Homo sapiens) (UniProt P10636)
# Sequence of UniProt P10636 (P10636 whole entry, looked up): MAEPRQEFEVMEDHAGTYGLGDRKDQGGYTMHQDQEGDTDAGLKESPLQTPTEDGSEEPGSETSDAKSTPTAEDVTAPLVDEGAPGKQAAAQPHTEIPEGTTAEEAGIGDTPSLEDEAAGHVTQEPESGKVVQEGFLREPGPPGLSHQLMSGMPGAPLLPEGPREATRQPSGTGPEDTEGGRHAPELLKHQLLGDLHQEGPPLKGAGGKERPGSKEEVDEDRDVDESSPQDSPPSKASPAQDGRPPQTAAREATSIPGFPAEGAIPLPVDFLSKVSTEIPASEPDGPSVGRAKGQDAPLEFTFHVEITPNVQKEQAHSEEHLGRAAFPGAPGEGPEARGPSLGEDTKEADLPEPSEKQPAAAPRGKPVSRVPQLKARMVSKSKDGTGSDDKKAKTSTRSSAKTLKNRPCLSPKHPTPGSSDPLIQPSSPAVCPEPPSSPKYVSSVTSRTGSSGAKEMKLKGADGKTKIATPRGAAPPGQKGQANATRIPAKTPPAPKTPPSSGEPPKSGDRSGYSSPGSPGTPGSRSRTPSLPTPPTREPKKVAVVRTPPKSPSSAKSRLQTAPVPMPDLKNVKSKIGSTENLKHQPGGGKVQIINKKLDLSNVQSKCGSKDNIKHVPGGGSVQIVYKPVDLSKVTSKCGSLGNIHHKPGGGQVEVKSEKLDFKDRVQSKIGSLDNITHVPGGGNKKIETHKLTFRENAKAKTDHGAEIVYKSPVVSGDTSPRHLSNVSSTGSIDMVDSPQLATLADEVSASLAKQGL
# Assay: qHTS for Inhibitors of Tau Fibril Formation, Fluorescence Polarization; note: nearly all actives have a fitted effect of over 55% in size
# Settings: K18 P301L tau heparin fibrillization, Alexa594 FP, 6 h; series mostly up to 57.7 µM
# Procedure, shortened: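 FP of Alexa 594-tau after heparin (20 uM) induction. Substrate: human K18 P301L, 15 uM unlabeled, 0.24 uM labeled. Buffer 100 mM sodium acetate pH 7. 6 hr, 37 C.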
# Potency is the fitted concentration of half-maximal effect; tags give direction and shape of the fitted curve.
row,Structure (SMILES),Potency
1,Cc1ccc(-n2c(SCC(=O)NCc3ccco3)nc3nc4c(cc3c2=O)COC(C)(C)C4)cc1,"inconclusive [inhibitor, single point]"
2,CCCCC1=CC2=CC(=O)C(C)(OC(=O)CC)C(=O)C2=CN1CCN1CCOCC1 (stereo not drawn),"inconclusive [inhibitor, partial curve]"
3,CC(=O)C1=C(c2ccccc2)N(C(C)=O)n2c(C)nnc2S1,"inconclusive [inhibitor, partial curve]"
4,Cc1ccc(S(=O)(=O)CC(=O)c2cc(C)c(O)c(C)c2)cc1,inactive
5,Cc1ccc(NC(=O)COC(=O)C2CSC3(C)CCC(=O)N23)cc1S(=O)(=O)N1CCOCC1 (stereo not drawn),"inconclusive [activator, full curve, poor fit]"
6,CCOC(=O)C1=C(O)/C(=C/c2ccc(OCC(=O)O)c(OC)c2)SC1=Nc1ccc(OCC)cc1,"inconclusive [activator, single point]"
7,COC(=O)c1cc(=O)n(Cc2ccc3c(c2)OCO3)c(=Nc2ccccc2)s1,inactive
8,CCOC(=O)CCCCC(=O)c1[nH]c(=O)[nH]c1Cn1ccnc1,inactive
9,Nc1ccccc1C#CCCCCO,inactive
10,Cc1nc2ccccc2nc1OCc1ccc([N+](=O)[O-])cc1,inactive
11,CC(=O)OCCNc1cc(N2CCN(C)CC2)c2noc3c2c1C(=O)c1ccccc1-3,"inconclusive [inhibitor, single point]"
12,CS(=O)(=O)N1CCc2cc(C(=O)Nc3ccc(C(F)(F)F)cc3)ccc21,"inconclusive [inhibitor, single point]"
13,COc1ccc(/C=C2\SC(=O)N(CCNC(=O)Cc3coc4cc(C)ccc34)C2=O)cc1OC,"inconclusive [inhibitor, partial curve, poor fit]"
14,O=C(O)c1ccc(S(=O)(=O)NC2CCCc3ccccc32)cc1 (stereo not drawn),inactive
15,COCCCn1c(N)c(-c2nc3ccccc3n2C)c2nc3ccccc3nc21,"inconclusive [activator, partial curve]"
16,CCC(OC(=O)c1nsc(Cl)c1Cl)C(=O)NCc1cccs1 (stereo not drawn),"inconclusive [inhibitor, full curve, poor fit]"
17,CCC(C)N1C(=O)/C(=C/c2c(NCCCOC(C)C)nc3c(C)cccn3c2=O)SC1=S (stereo not drawn),active: 25.1 µM
18,COc1ccc(OC)c2sc(N3CCN(C(=O)C4COc5ccccc5O4)CC3)nc12 (stereo not drawn),inactive
19,CC(C)C(NC(=O)c1ccccc1NC(=O)c1ccco1)C(=O)O (stereo not drawn),"inconclusive [inhibitor, single point]"
20,CCOP(=O)(OCC)c1nc(-c2ccccc2Cl)oc1N1CCOCC1,"inconclusive [inhibitor, single point]"
21,CCCCCn1cc2c(c1-c1ccccc1Br)c(=O)n(C)c(=O)n2C,inactive
22,O=S(=O)(c1ccccc1)c1nnn2c1nc(NCc1ccccc1)c1cc(Cl)ccc12,"inconclusive [inhibitor, partial curve]"
23,CCOc1ccc2c(=O)c(Oc3ccccc3)c(C)oc2c1,inactive

row,Structure (SMILES),Potency
1,O=C(Nc1cccc(F)c1)c1oc2ccccc2c1NC(=O)C12CC3CC(CC(C3)C1)C2,"inconclusive [inhibitor, partial curve]"
2,O=C(Nc1ccc(S(=O)(=O)N2CCc3ccccc32)cc1)c1ccco1,"inconclusive [inhibitor, partial curve]"
3,CC(C)(C)C1CCc2c(sc(NC(=O)c3ccccc3F)c2C(=O)NCc2ccco2)C1 (stereo not drawn),"inconclusive [inhibitor, single point]"
4,Cc1ccc(C)c(NC(=S)NNC(=O)c2csc(C)c2C)c1,inactive
5,O=C(NCCn1cc(SCc2ccccc2)c2ccccc21)c1cccs1,"inconclusive [inhibitor, single point]"
6,CCCc1cc(=O)[nH]c(Nc2ccccc2O)n1,inactive
7,O=C(Nn1cnc2ccccc2c1=O)C1CCCCC1,"inconclusive [inhibitor, single point]"
8,CCCOC(=O)c1ccc(Oc2c(-c3ccc(OCC)cc3O)n[nH]c2C)cc1,"inconclusive [inhibitor, partial curve]"
9,CSc1ccc(/C=N/N2CCN(Cc3ccc(C)cc3C)CC2)cc1,inactive
10,O=C(Nc1ccc(Cl)cc1C(=O)O)c1ccc2c(c1)C(=O)N(Cc1ccco1)C2=O,"inconclusive [activator, partial curve]"
11,COc1ccc(C2=NS(=O)(=O)N(C)C(C(=O)Nc3ccc(OC(F)(F)F)cc3)=C2)cc1,"inconclusive [inhibitor, single point]"
12,O=C(c1cccc(S(=O)(=O)NCc2ccccc2)c1)N1CCN(Cc2ccccc2)CC1,inactive
13,CCn1c2ccc(C)cc2c2nnc(SCCN3CCOCC3)nc21,inactive
14,CCOc1ccc(Nc2nc3c(S(=O)(=O)c4ccc(CC)cc4)nnn3c3ccc(Cl)cc23)cc1,"inconclusive [inhibitor, full curve, poor fit]"
15,CC1CCN(S(=O)(=O)c2ccc3c(ccc(=O)n3CC(=O)NCc3ccc(Cl)cc3)c2)CC1,inactive
16,CCNc1nc(NC(C)(C)C)nc(Oc2ccc(=O)n(-c3ccccc3)n2)n1,inactive
17,COc1ccc(S(=O)(=O)N(CC(=O)Nc2cc(C)cc(C)c2)c2ccc(Cl)cc2)cc1,"inconclusive [inhibitor, partial curve]"
18,Nc1cc(-c2ccc(OC(F)(F)F)cc2)nn1-c1ccc(Cl)c(Cl)c1,"inconclusive [inhibitor, single point]"
19,CCOC(=O)CSc1nc(-c2ccc(F)cc2)cc(C(F)(F)F)c1C#N,"inconclusive [inhibitor, single point]"
20,Cc1ccc(NC(=O)CC2C(=O)NCCN2C(=S)Nc2ccccc2)c(C)c1 (stereo not drawn),inactive
21,CCOc1ccccc1NC(=O)c1cc(S(=O)(=O)N2CCOCC2)cn1C,inactive
22,CC(=O)c1cccc(NC(=O)N2CCCC2C(=O)Nc2c(C)cccc2C)c1 (stereo not drawn),inactive
23,CCC(=O)N1c2ccccc2C(C)(c2ccccc2)CC1(C)C (stereo not drawn),inactive

row,Structure (SMILES),Potency
1,Cc1ccc2nc(-c3ccc(SCC(=O)Nc4ccc5c(c4)OCCO5)nc3)[nH]c2c1,"inconclusive [inhibitor, partial curve]"
2,Cc1cc(O)c(Oc2cc(C)cc(O)c2O)c(O)c1,"inconclusive [inhibitor, single point]"
3,CNc1nc(Nc2ccc(C)c(Cl)c2)nc(N)c1[N+](=O)[O-],"inconclusive [inhibitor, single point]"
4,O=C(NNC(=O)C1CCCCC1)c1cnccn1,"inconclusive [inhibitor, single point]"
5,CC(C)c1ccc(NC(=O)N2CCN(c3ccc(Cl)c(Cl)c3)CC2)cc1,"inconclusive [inhibitor, partial curve, poor fit]"
6,NC(=O)c1c(NC(=O)C2CCCO2)sc2c1CCCCC2 (stereo not drawn),"inconclusive [inhibitor, partial curve, poor fit]"
7,CCN(CC)S(=O)(=O)c1cccc(-c2n[nH]c(=S)n2/N=C/c2ccc(Br)cc2)c1,"inconclusive [inhibitor, full curve, poor fit]"
8,O=C(Nc1ccc(-c2csc(Nc3cccc(C(F)(F)F)c3)n2)cc1)c1cccc(C(F)(F)F)c1,"inconclusive [inhibitor, single point]"
9,Cc1cc(C)c(/C=C/c2onc(C)c2S(=O)(=O)N2CCC(C(=O)Nc3cccc(C)c3C)CC2)c(C)c1,inactive
10,COc1ccc(Nc2ccc(Cl)cc2)c(C(=O)O)c1,"inconclusive [activator, full curve, poor fit]"
11,Cc1ccc2[nH]c(=O)c3cc(C(=O)NCc4cccc(Cl)c4)sc3c2c1,"inconclusive [inhibitor, full curve]"
12,Cc1ccc(S(=O)(=O)N(C)C)cc1NC(=S)NC12CC3CC(CC(C3)C1)C2,"inconclusive [inhibitor, single point]"
13,O=C(C1CCCN(S(=O)(=O)c2cccc3nonc23)C1)N1CCN(c2cccc(C(F)(F)F)c2)CC1 (stereo not drawn),"inconclusive [activator, single point]"
14,O=C(Nc1cccc2ccccc12)c1ccc(OC(=S)N2CCOCC2)cc1,"inconclusive [inhibitor, partial curve]"
15,CN(C)CCN(C(=O)c1ccc(S(=O)(=O)N(C)C)cc1)c1nc2cc3c(cc2s1)OCCO3,inactive
16,Cc1ccc(S(=O)(=O)N2CCCc3cc(NS(=O)(=O)c4ccccc4)ccc32)cc1,"inconclusive [inhibitor, full curve, poor fit]"
17,Cc1ccc(-c2n[nH]c3c2CCC3)cc1,"inconclusive [inhibitor, partial curve, poor fit]"
18,CC(=O)N1CCn2c3c(c4cc(C)ccc42)CCCC31 (stereo not drawn),inactive
19,CC(=O)C1=C(C)N(Cc2ccccc2)C(=O)N[C@H]1c1ccco1,inactive
20,CCc1ccc2c(c1)c1nc(C)sc1n2CC,"inconclusive [inhibitor, partial curve]"
21,Cn1c(CNC(=O)c2ccc(Cl)c(Cl)c2)nnc1SCC(=O)Nc1sc2c(c1C#N)CCCC2,"inconclusive [inhibitor, partial curve, poor fit]"
22,Cc1ccc2c(n1)sc1c(-c3ccccc3)c(C#N)c(N)nc12,"inconclusive [inhibitor, partial curve, poor fit]"
